Screen size: about 310,000 compounds; about 14,000 (4.5%) showed an effect of 50% or more. The effect is printed as a negative number. This is one part of the list. Where a SMILES comes first, the peptide text is derived from it. The star is where a group is joined. Cbz = O=C(OCc1ccccc1)*
Target: human ether-à-go-go-related gene (hERG) potassium channel (human, UniProt Q12809)
Assay: primary screen, population patch clamp on CHO cells stably expressing hERG
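Further: peak tail current of the secondary pulse compared with the same well before compound.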

Chain of human ether-à-go-go-related gene (hERG) potassium channel (Q12809 whole entry, looked up): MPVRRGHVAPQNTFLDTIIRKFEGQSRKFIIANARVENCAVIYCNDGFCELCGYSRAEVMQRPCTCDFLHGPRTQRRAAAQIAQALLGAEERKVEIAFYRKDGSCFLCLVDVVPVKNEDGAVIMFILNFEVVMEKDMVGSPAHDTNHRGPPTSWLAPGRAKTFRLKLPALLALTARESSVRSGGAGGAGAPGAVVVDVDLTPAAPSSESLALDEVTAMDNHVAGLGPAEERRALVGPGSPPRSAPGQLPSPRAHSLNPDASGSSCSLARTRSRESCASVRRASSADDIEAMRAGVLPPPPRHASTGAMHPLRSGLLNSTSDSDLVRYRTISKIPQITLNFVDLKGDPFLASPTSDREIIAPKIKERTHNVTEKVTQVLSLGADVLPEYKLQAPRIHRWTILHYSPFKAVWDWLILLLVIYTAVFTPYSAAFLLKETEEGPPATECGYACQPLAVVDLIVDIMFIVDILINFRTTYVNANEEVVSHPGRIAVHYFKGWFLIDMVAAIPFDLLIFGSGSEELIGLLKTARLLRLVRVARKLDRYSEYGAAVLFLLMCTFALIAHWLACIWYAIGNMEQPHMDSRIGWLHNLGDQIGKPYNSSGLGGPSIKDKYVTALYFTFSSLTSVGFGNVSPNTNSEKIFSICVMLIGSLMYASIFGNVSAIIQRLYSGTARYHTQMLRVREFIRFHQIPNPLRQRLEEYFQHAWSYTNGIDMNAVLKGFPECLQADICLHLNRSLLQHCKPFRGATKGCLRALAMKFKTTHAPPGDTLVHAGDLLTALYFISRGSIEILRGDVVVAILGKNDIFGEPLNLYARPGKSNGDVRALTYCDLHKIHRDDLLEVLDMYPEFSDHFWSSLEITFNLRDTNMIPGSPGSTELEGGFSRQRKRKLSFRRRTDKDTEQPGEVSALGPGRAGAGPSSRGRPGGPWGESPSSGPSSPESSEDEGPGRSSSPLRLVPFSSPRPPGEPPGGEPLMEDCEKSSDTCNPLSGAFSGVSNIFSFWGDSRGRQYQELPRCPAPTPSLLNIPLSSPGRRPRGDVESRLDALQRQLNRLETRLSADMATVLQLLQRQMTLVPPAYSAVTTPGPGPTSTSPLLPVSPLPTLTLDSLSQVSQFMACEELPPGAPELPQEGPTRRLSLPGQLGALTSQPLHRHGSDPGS

SMILES | hERG current change (%, negative = inhibition) at 10uM
Cc1ccc(-c2nnc(COC(=O)c3cc(=O)[nH]c4ccccc34)o2)cc1 | -0.621%
CCCc1cc(=O)[nH]c(SCC(=O)N2CCN(S(=O)(=O)c3ccc(C)cc3C)CC2)n1 | 13.8%
O=C1C(=O)N(CCCn2ccnc2)C(c2cccnc2)/C1=C(/O)c1ccc(F)cc1 (stereo not shown) | 6.47%
CC(C)(C)C(=O)OCc1nc(-c2ccc(F)cc2)cs1 | 1.68%
COCCNC(=S)N/N=C(\C)c1cc2ccccc2o1 | -33.7%
COc1ccc2oc(=O)c(-c3cn4ccc(C)cc4n3)cc2c1 | 15.1%
COc1ccc(OC)c(Nc2nc(N)nc(CSc3nnc(-c4ccncc4)o3)n2)c1 | 10.5%
CCOc1ccc(C)cc1S(=O)(=O)NC1CCCCC1 | -24.9%
CCOc1ccc(-n2c(SCC(=O)NC3CCS(=O)(=O)C3)nnc2-c2cccnc2)cc1 (stereo not shown) | 22.8%
O=C(CSc1nc2ccccc2o1)Nc1nc2ccccc2s1 | 14.4%
COC(=O)C(CO)NC(=O)C(C)NC(=O)CNC(=O)OCc1ccccc1 (stereo not drawn) (Cbz-Gly-Ala-Ser-OMe; configuration not given here) | 28.7%
CCc1ccccc1N(CC(=O)NCCc1ccccc1)C(=O)CCC(=O)Nc1ccccn1 | -18.8%
CCCc1cc(C(=O)N2CCC(N3CCC(C(=O)NC(C)C)CC3)CC2)n(C)n1 | 0.88%
O=[N+]([O-])c1cc2c(cc1/C=N/n1cnnc1)OCO2 | 10.4%
CN(CC(=O)NC1CCCCCCC1)S(=O)(=O)c1cnc[nH]1 | -12.1%
CCCCNC(=O)CNC(=S)N(Cc1ccccc1F)C1CCCCC1 | 12.7%
COc1ccc([C@H]2CC(=O)C=C(c3ccc(F)cc3OCc3ccccc3)C2)cc1OC | 12.1%
O=C(CSc1nnc(NC(=O)C2CC2)s1)NCc1ccccc1 | 9.19%
CCOC(=O)N1CCN(C(=O)CN2C(=O)COc3ccc(C)cc32)CC1 | 1.37%
COc1ccc([N+](=O)[O-])cc1NC(=O)C(C)N(C)Cc1cccc(OC)c1OC (stereo not shown) | -1.23%
CCN(CC)CCNC(=O)c1c(C)oc2cc(Br)c(OC)cc12 | -32.1%
CC(C)N1CCN(Cc2ccc(C#CC(C)(C)O)s2)CC1CCO (stereo not shown) | -13%
CCC(C)[C@H](NC(=O)OC(C)(C)C)c1nnc(SCc2c(C)[nH]c(=O)[nH]c2=O)o1 (stereo partly shown) | 0.934%
CCc1nc(N)nc2c1C(=O)CC(C)(C)C2 | 6.86%
O=C(Nc1ccccc1Cc1ccccc1)C1CC(=O)N(c2ccc3c(c2)OCCO3)C1 (stereo not shown) | 14.1%
COc1cc(OC)c2c(-c3ccccc3)cc(=O)oc2c1 | 15.1%
CCN1CCC(=NNC(=O)c2ccc(C)c([N+](=O)[O-])c2)CC1 | 7.8%
CCC1(C)NC(=O)N(/N=C/c2ccc(C)s2)C1=O (stereo not shown) | 24.9%

SMILES | hERG current change (%, negative = inhibition) at 10uM
Cc1ccccc1C(=O)OC1CCCN(C)C1.Cl (stereo not shown) | 15.2%
Cc1ccc(N(CC(=O)NC2CCCC2)C(=O)CCC(=O)Nc2nccs2)c(C)c1 | 3.95%
Cc1cc(OC(=O)c2cc(F)c(F)cc2Cl)nc(C)n1 | 32.7%
Cc1cc2cc(NC(=O)c3ccco3)ccc2[nH]1 | -11.8%
Cc1nc(CC(C)C)cc(C(=O)N2CCCC(Nc3ccc(C)c(C)c3)C2)n1 (stereo not shown) | 6.89%
O=C(Cc1ccc(S(=O)(=O)N2CCCCC2)cc1)NCc1ccc(Cl)cc1 | -45.8%
CCN(C(=O)Nc1cccc(Cl)c1)c1ccccc1 | 1.43%
O=C(CCC1CCCN(C(=O)c2ccco2)C1)NCc1ccccc1F (stereo not shown) | 3.58%
CN1C(=O)S/C(=C/c2ccccc2OCc2ccc(C(=O)O)cc2)C1=O | 10%
COc1ccc(N2CCN(C(=O)COC(=O)CNC(=O)c3ccccc3)CC2)cc1 | 1.95%
CCc1cc(=O)oc2c3c(cc(OCC(=O)N[C@H](C(=O)O)[C@H](C)CC)c12)OC(C)(C)CC3 | 23.8%
CCOC(=O)c1c(-c2ccccc2)csc1NC(=O)/C(C#N)=C/c1ccc(OC)c(OC)c1 | -13.7%
Cc1ccc(S(=O)(=O)N(C)Cc2ccc(-c3nnco3)cc2)cc1 | 7.53%
COc1cc(CN(C)Cc2cc(=O)n3ccsc3n2)ccc1OC(F)F | -28.1%
Cc1ccc(NC(=O)COC(=O)CCc2ccc(S(=O)(=O)N3CCOCC3)cc2)c(C)c1 | -9.5%
O=C(Cn1nc(C(F)F)cc1C(F)F)NNC(=S)Nc1ccc(F)cc1 | 17.4%
CCOc1cc(C(=S)N2CCN(C)CC2)ccc1OCC(=O)N1CCCC1 | 16%
COC(=O)c1sc(NC(=O)CSc2nc3cccnc3n2C2CCCCC2)nc1C | 10.1%
O=S(=O)(c1ccccc1)N1CCCN(S(=O)(=O)c2ccccc2)CC1 | 20.3%
C(CCc1nn[nH]n1)CCc1nn[nH]n1 | 11.9%
CCOc1ccc2nc(SC3CC(=O)N(c4ccccc4)C3=O)sc2c1 (stereo not shown) | 12.5%
CCOC(=O)C(Cc1ccccc1)NC(=O)CCCC(=O)c1ccccc1 (stereo not shown) | 0.911%
O=C(NCCSc1ncc(-c2ccc(F)cc2)[nH]1)c1ccco1 | -37.1%
COc1cccc(NC(=O)COC(=O)CNS(=O)(=O)c2c(F)cccc2F)c1 | -8.24%
Cn1cccc1/C=N/NC(=O)c1cc(-c2cccs2)nc2ccccc12 | -7.93%
Cn1c(N)c(C(=O)COC(=O)C2=COCCO2)c(=O)n(C)c1=O | 11.6%
COc1ccc(C(CNCC(O)COc2c(C)ccc(C)c2C)N(C)C)cc1 (stereo not shown) | -44.1%

From paper PMC4336329 (PLoS ONE, 2015)
